Measurements reported in the RNAGym collection of RNA variant scans (doi:10.1073/pnas.2313332121).
Variants at the background level are over-represented here.

B1: TPR 5TU (parent)
chain: GGAUCUUCUCGAUCUAACAAAAAAGACAAAUCUGCCACAAAGCUUGAGAGCAUCUUCGGAUGCAGAGGCGGCAGCCUUCGGUGGCGCGAUAGCGCCAACGUUCUCAACUAUGACACGCAAAACGCGUGCUCCGUUGAAUGGAGUUUAUCAUG

Variants of: B1
Assay: polymerase ribozyme fitness, log enrichment relative to wild type (log ratio); higher = more active; in vitro selection for triplet polymerase activity
In short: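 Mutant libraries of each subunit of a heterodimeric triplet polymerase ribozyme were built by PCR and transcribed. Each library went through one round of in vitro selection in triplicate: annealing with biotinylated primer, partner subunit and triplets, frozen incubation at −7 °C, gel excision of extended constructs, streptavidin-bead capture and RT-PCR. Input and output libraries were Illumina-sequenced; only genotypes with ≥10 input reads and ≥1 read per output were kept. Fitness is log2(genotype enrichment/wild-type enrichment), using inverse-variance-weighted replicate averages.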

For G48C C54U A66G G92C, which “polymerase ribozyme fitness (log ratio)” value is on record?
The value was no more than -4.2.

With A49C U55A G58C C99U G141A as the variant, how does the “polymerase ribozyme fitness (log ratio)” value read?
Its value is no more than -4.2.

With G48A C54U G80A U90G C149U as the variant, how does the “polymerase ribozyme fitness (log ratio)” value read?
The value was no more than -4.2.

With A49C U77A as the variant, how does the “polymerase ribozyme fitness (log ratio)” value read?
The value was no more than -4.2.

Which “polymerase ribozyme fitness (log ratio)” value does the source give for G50A A52U C85G U134C here?
Its value is no more than -4.2.

With G48A G59U C87U A97U G136A as the variant, how does the “polymerase ribozyme fitness (log ratio)” value read?
Its value is -1.99.

With G48U G65A C95U C105U C129G C132U as the variant, how does the “polymerase ribozyme fitness (log ratio)” value read?
The value was no more than -4.2.

For G48U G94A U151C, which “polymerase ribozyme fitness (log ratio)” value is on record?
The value was no more than -4.2.

For A49C U78G C87G A97C U130G U148A, which “polymerase ribozyme fitness (log ratio)” value is on record?
Its value is no more than -4.2.

Which “polymerase ribozyme fitness (log ratio)” value does the source give for A49G G100A C105A G140A here?
The value was no more than -4.2.

For A47U C54A G83U C95G C99U U130A G141U, which “polymerase ribozyme fitness (log ratio)” value is on record?
Its value is no more than -4.2.

With A49G A52G G68U C69G G100C as the variant, how does the “polymerase ribozyme fitness (log ratio)” value read?
Its value is no more than -4.2.

Which “polymerase ribozyme fitness (log ratio)” value does the source give for G48U C85A U127C here?
The value was -2.74.

For A49G A73U C96U U109G C123G C149G, which “polymerase ribozyme fitness (log ratio)” value is on record?
Its value is no more than -4.2.

For A49C U109G G152U, which “polymerase ribozyme fitness (log ratio)” value is on record?
Its value is -4.18.

For A49C G71C A120U G143A U145C U146A, which “polymerase ribozyme fitness (log ratio)” value is on record?
Its value is no more than -4.2.

For A49C C131U, which “polymerase ribozyme fitness (log ratio)” value is on record?
Its value is no more than -4.2.

With A49C G81A A107C C108G U127A as the variant, how does the “polymerase ribozyme fitness (log ratio)” value read?
The value was no more than -4.2.

Which “polymerase ribozyme fitness (log ratio)” value does the source give for A49C A52C U53C U148G here?
The value was no more than -4.2.

With A49C U53A G59C G67A C99G A115G as the variant, how does the “polymerase ribozyme fitness (log ratio)” value read?
Its value is no more than -4.2.

Which “polymerase ribozyme fitness (log ratio)” value does the source give for A49C C57U here?
Its value is -3.72.

For A49G C131G G133A, which “polymerase ribozyme fitness (log ratio)” value is on record?
Its value is no more than -4.2.

Which “polymerase ribozyme fitness (log ratio)” value does the source give for G50A C63A G67A G80A A142G here?
The value was no more than -4.2.

For G48U A52C U53A G74A C79U C87A G143A C149G, which “polymerase ribozyme fitness (log ratio)” value is on record?
The value was no more than -4.2.

Which “polymerase ribozyme fitness (log ratio)” value does the source give for G50C C51A G71A G86U G100U A122G here?
The value was no more than -4.2.

With A49C G136A as the variant, how does the “polymerase ribozyme fitness (log ratio)” value read?
The value was no more than -4.2.

With A49C C54U C96A C103U as the variant, how does the “polymerase ribozyme fitness (log ratio)” value read?
Its value is no more than -4.2.

Which “polymerase ribozyme fitness (log ratio)” value does the source give for G48A A91G A120C U135C A147U here?
Its value is no more than -4.2.

Which “polymerase ribozyme fitness (log ratio)” value does the source give for A49G A52C G59A G84A G94U C103U here?
Its value is no more than -4.2.

Which “polymerase ribozyme fitness (log ratio)” value does the source give for A49C C93A here?
Its value is no more than -4.2.

Which “polymerase ribozyme fitness (log ratio)” value does the source give for A49C C93G here?
Its value is no more than -4.2.

With A47U C54A as the variant, how does the “polymerase ribozyme fitness (log ratio)” value read?
Its value is -1.93.

Which “polymerase ribozyme fitness (log ratio)” value does the source give for G50A C93A C116A A122G C129G here?
The value was no more than -4.2.

For A47U G68C G86A G88U U101C C116A G143C, which “polymerase ribozyme fitness (log ratio)” value is on record?
The value was no more than -4.2.

For A49C A91U G92C A107C C118U, which “polymerase ribozyme fitness (log ratio)” value is on record?
The value was no more than -4.2.

For A49C A119U, which “polymerase ribozyme fitness (log ratio)” value is on record?
Its value is no more than -4.2.

With A49U U61G C69G C87U G88A C123U as the variant, how does the “polymerase ribozyme fitness (log ratio)” value read?
Its value is no more than -4.2.

For A49C C54A C87U A97G U144G, which “polymerase ribozyme fitness (log ratio)” value is on record?
The value was no more than -4.2.

For A49U G67U C75U A91U G92A A98G A106C G143U, which “polymerase ribozyme fitness (log ratio)” value is on record?
The value was no more than -4.2.

Which “polymerase ribozyme fitness (log ratio)” value does the source give for G48A U78G here?
The value was no more than -4.2.

For G48C C63U C69U G74A C93A U102G A107G, which “polymerase ribozyme fitness (log ratio)” value is on record?
The value was no more than -4.2.

With G48U A49C C69G G86A C93U U139G A150G as the variant, how does the “polymerase ribozyme fitness (log ratio)” value read?
The value was no more than -4.2.

Which “polymerase ribozyme fitness (log ratio)” value does the source give for A49U G68C G84A C95G A97U G100U A107U C108G U148G here?
Its value is no more than -4.2.

With G48A A107U C123A as the variant, how does the “polymerase ribozyme fitness (log ratio)” value read?
The value was no more than -4.2.

With A49C C114U C129A U148C as the variant, how does the “polymerase ribozyme fitness (log ratio)” value read?
The value was no more than -4.2.

With G48A C85U A97U U130C A150U as the variant, how does the “polymerase ribozyme fitness (log ratio)” value read?
The value was no more than -4.2.

For A49C G83A A89U U90G U101C, which “polymerase ribozyme fitness (log ratio)” value is on record?
Its value is no more than -4.2.

Which “polymerase ribozyme fitness (log ratio)” value does the source give for A47U G48A U146G here?
Its value is -2.73.

With A49G G68U C76A U102G A107C C149G as the variant, how does the “polymerase ribozyme fitness (log ratio)” value read?
The value was no more than -4.2.

For A49C C87A A119G G126A G133U U135A, which “polymerase ribozyme fitness (log ratio)” value is on record?
The value was no more than -4.2.

Which “polymerase ribozyme fitness (log ratio)” value does the source give for G50A C54U U55A A73G here?
Its value is no more than -4.2.

For G50A G62A C87G C105U A142G, which “polymerase ribozyme fitness (log ratio)” value is on record?
The value was no more than -4.2.

Which “polymerase ribozyme fitness (log ratio)” value does the source give for A49C C51U A73G here?
The value was no more than -4.2.

With A49U C69A G84U C96A U104A C105G A107G G143A as the variant, how does the “polymerase ribozyme fitness (log ratio)” value read?
Its value is no more than -4.2.

For A49C G59A A60G A106G, which “polymerase ribozyme fitness (log ratio)” value is on record?
The value was no more than -4.2.

For G48A A107G, which “polymerase ribozyme fitness (log ratio)” value is on record?
Its value is -4.08.

With G48C G59C A73G C76U C96U U101C as the variant, how does the “polymerase ribozyme fitness (log ratio)” value read?
The value was -3.78.

With A49C A52C C87A U90G C95G as the variant, how does the “polymerase ribozyme fitness (log ratio)” value read?
Its value is no more than -4.2.

Which “polymerase ribozyme fitness (log ratio)” value does the source give for A49C A91U G117U G143A here?
Its value is no more than -4.2.

With G50A U55A G70A G83C U101A U104A C105G G124U as the variant, how does the “polymerase ribozyme fitness (log ratio)” value read?
Its value is no more than -4.2.

For G50C A52C U77G C87A, which “polymerase ribozyme fitness (log ratio)” value is on record?
The value was no more than -4.2.

With G50A A60G G86A C103U A138G as the variant, how does the “polymerase ribozyme fitness (log ratio)” value read?
The value was no more than -4.2.

With G50A C76G C93G U102A U135G A150G as the variant, how does the “polymerase ribozyme fitness (log ratio)” value read?
Its value is no more than -4.2.

With A47U C96G C116U as the variant, how does the “polymerase ribozyme fitness (log ratio)” value read?
Its value is -0.28.

Which “polymerase ribozyme fitness (log ratio)” value does the source give for G48C C79A U82C C85G A122C U151G here?
Its value is no more than -4.2.

For A49U A66U G84U A137U, which “polymerase ribozyme fitness (log ratio)” value is on record?
The value was no more than -4.2.

With G48A G94U G100A A110G G143C as the variant, how does the “polymerase ribozyme fitness (log ratio)” value read?
Its value is no more than -4.2.

Which “polymerase ribozyme fitness (log ratio)” value does the source give for G48A U53A C57G G92C A121G G126A A137U here?
Its value is no more than -4.2.

Which “polymerase ribozyme fitness (log ratio)” value does the source give for G48A G84A A107C C118G here?
Its value is no more than -4.2.

For A49C A52U A138U, which “polymerase ribozyme fitness (log ratio)” value is on record?
The value was no more than -4.2.

With G48C G58C C63A G74C G81A A89U A137C as the variant, how does the “polymerase ribozyme fitness (log ratio)” value read?
Its value is no more than -4.2.

With A49C C96A as the variant, how does the “polymerase ribozyme fitness (log ratio)” value read?
The value was -3.04.

Which “polymerase ribozyme fitness (log ratio)” value does the source give for G50C A73G C96G C103U A137C here?
The value was no more than -4.2.

Which “polymerase ribozyme fitness (log ratio)” value does the source give for A49C C57A C96G U104G A107C U139C G143A U146C here?
The value was no more than -4.2.

Which “polymerase ribozyme fitness (log ratio)” value does the source give for G48A C57U C75G C85G U151A here?
The value was no more than -4.2.

With A49G U53G C63A C79U C96A U104C C114U A137C as the variant, how does the “polymerase ribozyme fitness (log ratio)” value read?
The value was no more than -4.2.

With G50A C93G U148C as the variant, how does the “polymerase ribozyme fitness (log ratio)” value read?
Its value is no more than -4.2.

Which “polymerase ribozyme fitness (log ratio)” value does the source give for A49U C75U G81A C96U U109C here?
Its value is no more than -4.2.

With A49U A73G G81C C85U as the variant, how does the “polymerase ribozyme fitness (log ratio)” value read?
The value was -2.64.

For G50A G68U G74U C85U A120U G126A, which “polymerase ribozyme fitness (log ratio)” value is on record?
Its value is no more than -4.2.

With A47U U56A U78C A91U as the variant, how does the “polymerase ribozyme fitness (log ratio)” value read?
The value was no more than -4.2.

For A47U C57A, which “polymerase ribozyme fitness (log ratio)” value is on record?
The value was 0.807.

With G48A U61A G71A C85G A107U G124U G141U as the variant, how does the “polymerase ribozyme fitness (log ratio)” value read?
The value was no more than -4.2.
